Out of some 310,000 compounds screened, about 18,000 (5.8%) were called active. The shares of active, inactive and inconclusive entries below differ from those in the screen. Calls follow the shape of the dose curve; as a rule, active = well fitted inhibition curve with a large enough effect; inconclusive = small, poorly fitted or top-dose-only effect, or another doubt; inactive = no such curve, though single readings can be large or run the other way. No potency is given beside an inconclusive call; the fits are too rough.
Experiment: Primary qHTS for delayed death inhibitors of the malarial parasite plastid, 48 hour incubation
Settings: P. falciparum luciferase growth in erythrocytes; series mostly up to 28.7 µM
Method in brief: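 A one-generation exposure of luciferase-tagged malaria parasites in RPMI 1640/Albumax erythrocyte culture, 37 C and 5% CO2. Inhibition is inferred from decreased luminescence after adding detection reagent.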
Potency is read from the fitted curve at half-maximal effect; tags tell the direction and shape of the fitted curve.

Row | SMILES | Potency
1 | S=C1NC2(CCCCC2)N=C1c1ccccc1 | inconclusive [inhibitor, single point]
2 | COC1=C(N)C(=O)c2nc(-c3nc(C(=O)O)c(C)c(-c4ccc(OC)c(OC)c4O)c3N)ccc2C1=O | active: 0.0522 µM
3 | Cc1ccc(C(=O)N2CCCN(c3nc4cc5c(cc4cc3C#N)OCO5)CC2)cc1 | inconclusive [inhibitor, single point]
4 | COc1ccccc1N1CCN(C(=O)C(C)N(c2ccc(C)cc2)S(C)(=O)=O)CC1 (stereo not given) | inconclusive [inhibitor, single point]
5 | CCOc1ccc(OCC)c(NC(=O)CN(c2ccc(OC)cc2)S(=O)(=O)c2c(C)noc2C)c1 | active: 13.1 µM
6 | COc1cccc(CNC(=O)CN2C(=O)CCSc3ccc(S(=O)(=O)N4CCCC4)cc32)c1 | inconclusive [inhibitor, single point]
7 | CCc1c(C)sc(NC(=O)OC)c1C(N)=O | inactive
8 | CC(C)(C)SCCNC(=O)CN(c1ccc(F)cc1)S(=O)(=O)c1ccccc1 | inconclusive [inhibitor, single point]
9 | CCn1c(CC(=O)Nc2ccccc2F)nnc1SCC(=O)NC1CCCC1 | inactive
10 | COc1ccc(NC2CCCN(C(=O)CN3CCOC3=O)C2)cc1 (stereo not given) | inactive
11 | NC(=NC(=O)c1ccc(OC(F)(F)F)cc1)c1ccc(C(F)(F)F)cn1 | inconclusive [inhibitor, partial curve, poor fit]
12 | CCOC(=O)Nc1ccc2c(c1)N(C(=O)N(CC)CC)c1ccccc1CC2 | active: 11.7 µM
13 | Cc1nc(SCC(=O)Nc2nc3ccccc3s2)c(C#N)c(C)c1C | inactive
14 | CCOC(=O)c1cccc(NC(=O)CCn2nnc3ccccc32)c1 | inconclusive [inhibitor, partial curve]
15 | NS(=O)(=O)c1ccc(CCNC(=O)C(=O)c2cn(CC(=O)N3CCCC3)c3ccccc23)cc1 | inconclusive [inhibitor, single point]
16 | NC(=O)Nc1ccc(C(=O)OCC(=O)Nc2ccc([N+](=O)[O-])cc2C(F)(F)F)cc1 | inactive
17 | COc1ccc(-c2cc(C(=O)NCc3ccco3)c3ccccc3n2)c(OC)c1 | inconclusive [inhibitor, single point]
18 | Cc1cc(CN2CCN(CC(=O)Nc3cc(C(F)(F)F)ccc3-n3cncn3)CC2)no1 | active: 10.4 µM
19 | COc1cc2[nH]c(=O)n3nc(-c4ccccc4)nc3c2cc1OC | inconclusive [inhibitor, partial curve, poor fit]
20 | Cc1ccnc(NC(c2ccsc2)c2ccc3ccc(C)nc3c2O)c1 (stereo not given) | inconclusive [inhibitor, single point]
21 | CC1CCN(S(=O)(=O)c2ccc(NC(=O)c3ccco3)cc2)CC1 | active: 3.7 µM
22 | COc1ccc(CC2=CC(=O)c3ccccc3C2=O)cc1 | inconclusive [inhibitor, partial curve, poor fit]
23 | CCCCC(c1nnnn1CS(=O)(=O)c1ccc(C)cc1)N1CCN(C)CC1 (stereo not given) | inconclusive [inhibitor, single point]

Row | SMILES | Potency
24 | CN1C(=O)C2(NCCc3c2[nH]c2ccccc32)c2ccccc21 (stereo not given) | inconclusive [inhibitor, single point]
25 | CC1CCN(C(=O)COC(=O)c2cc([N+](=O)[O-])ccc2N2CCOCC2)CC1 | inactive
26 | COc1cc2c(cc1OC)C(c1cc3cc4c(cc3[nH]c1=O)OCO4)N(C(=O)C1CC1)CC2 (stereo not given) | active: 13.1 µM
27 | COc1ccc(NC(=O)CSc2nc(C(C)C)nc3c2c(=O)n(C)c(=O)n3C)c(OC)c1 | inactive
28 | CCN(CC)CCNC(=O)c1cc(S(=O)(=O)N2CCc3ccccc32)cn1C | inactive
29 | COCCNC(=S)Nc1ccc([N+](=O)[O-])cc1C | inactive
30 | COC(=O)C1=C(c2cccc(OCc3ccccc3)c2)C[C@@H]2CC[C@H]1N2C(=O)NCc1ccc(OC)cc1 | active: 7.38 µM
31 | CN(C)CC(C)(C)CNS(=O)(=O)c1ccc(Cl)s1 | inconclusive [inhibitor, partial curve]
32 | COc1ccccc1OCc1cc(C(=O)N2CCN(C)C(c3ccccc3)C2)no1 (stereo not given) | inconclusive [inhibitor, partial curve, poor fit]
33 | CC1CCN(C(=O)CCc2nnc3ccc(N4CCC5(CC4)OCCO5)nn23)CC1 | inactive
34 | CCC(CC)CN1CCN=C1Nc1ccccc1 | inconclusive [inhibitor, single point]
35 | CC12CC(c3ccccc3O1)N(C(=O)c1ccco1)C(=S)N2c1ccc(F)cc1 (stereo not given) | inconclusive [inhibitor, full curve, poor fit]
36 | O=C(CCc1ccccc1)NC1CCS(=O)(=O)C1 (stereo not given) | inactive
37 | CCOC(=O)c1nn(-c2ccc(OC)cc2)c(=O)c2c(N)scc12 | inconclusive [inhibitor, single point]
38 | Cc1cc(C)c2nc(N3C(=O)C(O)=C(C(=O)c4ccco4)C3c3cccc(O)c3)sc2c1 (stereo not given) | inconclusive [inhibitor, partial curve, poor fit]
39 | O=C(C1CC(=O)N(C2CCCCC2)C1)N1CCc2ccccc21 (stereo not given) | inactive
40 | CCOC(=O)Cc1csc(NC(=O)CCCCCN2C(=O)c3ccccc3C2=O)n1 | inconclusive [inhibitor, partial curve]
41 | Cc1cccc(N(CC(=O)NC(C)C)C(=O)c2ccc(N3CCCC3)nc2)c1 | inconclusive [inhibitor, partial curve, poor fit]
42 | CSc1nc2cc(Oc3cccc(Cl)c3Cl)c(Cl)cc2[nH]1 | active: 6.75 µM
43 | C/C(=N\NC(=O)c1cccc(S(=O)(=O)Nc2ccccc2Cl)c1)c1ccc(-n2ccnc2)cc1 | inactive
44 | Cc1nc(CSc2n[nH]c(=O)n2-c2cccc(F)c2)cs1 | inactive
45 | CC(=O)Nc1cccc(NC(=O)CCn2cnc3cc(C)c(C)cc32)c1 | inconclusive [inhibitor, single point]
